The supplement of paper PMC10723795
Counter-ions that a name gives are not always drawn. The list shows a part of the results.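 Rule for the calls: active = more than 2 SD below the DMSO mean: under 0.85 at 10 µM or 0.885 at 1 µM; inactive = the rest.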 Many values rest on one well or one pass, so single values are uncertain.

System: RPE1
Experiment: nucleolar normality score relative to DMSO (fraction of DMSO control); RPE1 is a non-cancer human cell line; higher = more normal nucleoli (less nucleolar stress)
Details: 24 h
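Note: fixed cells immunolabelled for nucleolin and UBF, 40 image fields per well in 384-well plates, per-cell score = nucleolin nucleolar/nucleoplasm intensity ratio divided by the matching UBF ratio.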

O=C(NC[C@H](O)CN1CCc2ccccc2C1)c1ccnc(NC2CCC2)c1
nucleolar normality score (1 µM): inactive: 0.978 | nucleolar normality score (10 µM): inactive: 0.966

NC(=O)c1ccc2nc(-c3ccc(Oc4ccc(Cl)cc4)cc3)[nH]c2c1 [Chk2 Inhibitor II (BML-277)]
nucleolar normality score (1 µM): inactive: 1.01 | nucleolar normality score (10 µM): inactive: 1.01

COc1ccnc(C[S+]([O-])c2nc3cc(-n4cccc4)ccc3[nH]2)c1C (stereo unspecified) [Ilaprazole]
nucleolar normality score (1 µM): inactive: 0.99 | nucleolar normality score (10 µM): inactive: 0.999

COC(=O)c1ccc(O)c(NC(=O)COc2ccc(C34CC5CC(CC(C5)C3)C4)cc2)c1
nucleolar normality score (1 µM): inactive: 1.06 | nucleolar normality score (10 µM): inactive: 0.978

CC(C)CCN1c2nc(Nc3cc(F)c(O)c(F)c3)ncc2N(C)C(=O)C1C (stereo unspecified)
nucleolar normality score (1 µM): inactive: 1.09 | nucleolar normality score (10 µM): inactive: 0.905

O=C1NC(=O)/C(=C/c2ccc(-c3ccc(F)cc3O)o2)S1
nucleolar normality score (1 µM): inactive: 1 | nucleolar normality score (10 µM): active: 0.839

Cc1cnc(Nc2ccc(N3CCN(C)CC3)cc2)nc1Nc1cccc(S(=O)(=O)NC(C)(C)C)c1
nucleolar normality score (1 µM): inactive: 1 | nucleolar normality score (10 µM): inactive: 0.882

Cc1cccc(-c2[nH]c(C(C)(C)C)nc2-c2ccc3nccnc3c2)n1
nucleolar normality score (1 µM): inactive: 1.03 | nucleolar normality score (10 µM): inactive: 1.02

COc1ccc(-c2oc3c(CC=C(C)C)c(O)cc(O)c3c(=O)c2O[C@@H]2O[C@@H](C)[C@H](O)[C@@H](O)[C@H]2O)cc1 [Baohuoside I]
nucleolar normality score (1 µM): inactive: 1.02 | nucleolar normality score (10 µM): inactive: 0.929

Nc1cccc(S(=O)(=O)N2CCCN(S(=O)(=O)c3ccc4c(c3)OCCO4)CC2)c1
nucleolar normality score (1 µM): inactive: 0.973 | nucleolar normality score (10 µM): inactive: 1.04

CC[C@H](C)n1cc(C)c2c(C(=O)NCc3c(C)cc(C)[nH]c3=O)cc(-c3ccc(N4CCNCC4)nc3)cc21
nucleolar normality score (1 µM): inactive: 0.96 | nucleolar normality score (10 µM): inactive: 0.967

CC[C@@]1(O)C(=O)OCc2c1cc1n(c2=O)Cc2cc3cc(O)ccc3nc2-1 [Hydroxy Camptothecine]
nucleolar normality score (1 µM): inactive: 1.04 | nucleolar normality score (10 µM): inactive: 1.08

CC[C@@]1(O)C(=O)OCc2c1cc1n(c2=O)Cc2cc3cc(O)ccc3nc2-1 [(S)-10-Hydroxycamptothecin]
nucleolar normality score (1 µM): inactive: 1.05 | nucleolar normality score (10 µM): active: 0.533

NC1(c2ccc(-c3nc4ccn5c(=O)[nH]nc5c4cc3-c3ccccc3)cc2)CCC1
nucleolar normality score (1 µM): inactive: 0.976 | nucleolar normality score (10 µM): inactive: 1.02

CN(C)CCCNC(=O)c1ccc(-c2cc(O)c3ncccc3c2)cc1
nucleolar normality score (1 µM): inactive: 1.01 | nucleolar normality score (10 µM): inactive: 1.07

CC1(C)OC(=O)C=C[C@]2(C)[C@H]3CC[C@@]4(C)[C@H](c5ccoc5)OC(=O)[C@H]5O[C@]54[C@]3(C)C(=O)C[C@@H]12 [Obacunone]
nucleolar normality score (1 µM): inactive: 0.985 | nucleolar normality score (10 µM): inactive: 0.863

O=c1[nH]cc(F)c(=O)[nH]1 [Fluorouracil (5-Fluoracil, 5-FU)]
nucleolar normality score (1 µM): inactive: 1.03 | nucleolar normality score (10 µM): inactive: 1.06

CNC(=O)c1ccc2cc([C@@]3(O)CCn4cncc43)ccc2c1 [TAK-700 (Orteronel)]
nucleolar normality score (1 µM): inactive: 0.94 | nucleolar normality score (10 µM): inactive: 1.02

N=c1ccn2c(n1)O[C@H]1[C@H](O)[C@@H](CO)O[C@H]12 [Cyclocytidine HCl]
nucleolar normality score (1 µM): active: 0.856 | nucleolar normality score (10 µM): inactive: 0.872

COc1cc2c(cc1OC)-c1cc3ccc(OC)c(OC)c3c[n+]1CC2 [Palmatine]
nucleolar normality score (1 µM): inactive: 1.03 | nucleolar normality score (10 µM): inactive: 1.04

C=CCc1ccc(O)c(-c2ccc(O)c(CC=C)c2)c1 [Honokiol]
nucleolar normality score (1 µM): inactive: 1.04 | nucleolar normality score (10 µM): inactive: 0.907

Cc1cc(-c2nc(-c3ccc(OC(F)(F)F)cc3)no2)nn1Cc1ccnc(N2CCN(C3CC3)CC2)c1
nucleolar normality score (1 µM): inactive: 0.98 | nucleolar normality score (10 µM): inactive: 1.03

CSc1cccc(Nc2ncc3cc(-c4c(Cl)cccc4Cl)c(=O)n(C)c3n2)c1
nucleolar normality score (1 µM): inactive: 1.03 | nucleolar normality score (10 µM): active: 0.802

O=c1c(-c2ccc(O)cc2)coc2cc(O)cc(O)c12 [Genistein]
nucleolar normality score (1 µM): inactive: 1.09 | nucleolar normality score (10 µM): inactive: 1.13

OCc1ccc(-c2ccc(-c3ccc(CO)s3)o2)s1
nucleolar normality score (1 µM): inactive: 0.962 | nucleolar normality score (10 µM): active: 0.84

O=C(O)c1ccc(Nc2ncc3c(n2)-c2ccc(Cl)cc2C(c2c(F)cccc2F)=NC3)cc1
nucleolar normality score (1 µM): inactive: 1.01 | nucleolar normality score (10 µM): inactive: 1.02

Cc1nc(Nc2n[nH]c3c2CN(C(=O)N[C@H](CN(C)C)c2ccccc2)C3(C)C)c2sccc2n1
nucleolar normality score (1 µM): inactive: 1.02 | nucleolar normality score (10 µM): active: 0.817

CCn1cc(-c2ccnc3[nH]c(-c4cccc(CN(C)C)c4)cc23)c(-c2ccc(NC(=O)N(C)C)cc2)n1
nucleolar normality score (1 µM): inactive: 0.965 | nucleolar normality score (10 µM): active: 0.818

CCC(=O)NS(=O)(=O)c1ccc(-c2c(-c3ccccc3)noc2C)cc1 [Parecoxib Sodium]
nucleolar normality score (1 µM): inactive: 1.03 | nucleolar normality score (10 µM): inactive: 1.06

CCOc1ccn(-c2ccc(F)cc2)c(=O)c1C(=O)Nc1ccc(Oc2ccnc(N)c2Cl)c(F)c1
nucleolar normality score (1 µM): inactive: 0.982 | nucleolar normality score (10 µM): inactive: 1.02

Oc1ccc(Nc2nc(-c3ccc(Cl)cc3)cs2)cc1
nucleolar normality score (1 µM): inactive: 0.91 | nucleolar normality score (10 µM): inactive: 1.04

Cc1ccc(C(=O)NCCCCCC(=O)Nc2ccccc2N)cc1
nucleolar normality score (1 µM): inactive: 1.09 | nucleolar normality score (10 µM): inactive: 1.05

COc1cc2ncnc(Nc3ccc(Cl)cc3F)c2cc1OC
nucleolar normality score (1 µM): inactive: 1.05 | nucleolar normality score (10 µM): inactive: 0.927

N[C@@H]1CCCN(c2c(/C=C3\SC(=O)NC3=O)cccc2-c2ccccc2)C1
nucleolar normality score (1 µM): inactive: 0.948 | nucleolar normality score (10 µM): active: 0.792

CO[C@H]1C[C@@H]2CC[C@@H](C)[C@@](O)(O2)C(=O)C(=O)N2CCCC[C@H]2C(=O)O[C@H]([C@H](C)C[C@@H]2CC[C@@H](O)[C@H](OC)C2)CC(=O)[C@H](C)/C=C(\C)[C@@H](O)[C@@H](OC)C(=O)[C@H](C)C[C@H](C)/C=C/C=C/C=C/1C [Rapamycin (Sirolimus)]
nucleolar normality score (1 µM): active: 0.862 | nucleolar normality score (10 µM): inactive: 0.899

Cc1[nH]c(/C=C2\C(=O)Nc3ccccc32)c(C)c1CCC(=O)O [Orantinib (TSU-68, SU6668)]
nucleolar normality score (1 µM): active: 0.88 | nucleolar normality score (10 µM): inactive: 0.944

COc1cc2c(=O)c(-c3ccc(O)cc3)coc2cc1O[C@@H]1O[C@H](CO)[C@@H](O)[C@H](O)[C@H]1O [Glycitin]
nucleolar normality score (1 µM): inactive: 0.975 | nucleolar normality score (10 µM): inactive: 1.09

CCN(CC)CCCC(C)Nc1c2ccc(Cl)cc2nc2ccc(OC)cc12 (stereo unspecified) [Quinacrine 2HCl]
nucleolar normality score (1 µM): active: 0.318 | nucleolar normality score (10 µM): active: 0.218

COc1cc(OC)cc(N(CCNC(C)C)c2ccc3ncc(-c4cnn(C)c4)nc3c2)c1
nucleolar normality score (1 µM): inactive: 1.01 | nucleolar normality score (10 µM): inactive: 1

C[C@@H](N)[C@H]1CC[C@H](C(=O)Nc2ccncc2)CC1
nucleolar normality score (1 µM): inactive: 1.03 | nucleolar normality score (10 µM): inactive: 1.09

CC(C)n1nc(-c2cc3cc(O)ccc3[nH]2)c2c(N)ncnc21 [Torkinib (PP242)]
nucleolar normality score (1 µM): inactive: 0.992 | nucleolar normality score (10 µM): inactive: 0.955

C=CC(=O)N1CCN(C(=O)CNc2cc(I)c(Cl)cc2O)CC1 [K-Ras(G12C) inhibitor 12]
nucleolar normality score (1 µM): inactive: 1.02 | nucleolar normality score (10 µM): inactive: 1.02

Cc1ccccc1CN1C(=O)C2=C(CCN(Cc3ccccc3)C2)N2CCN=C12
nucleolar normality score (1 µM): inactive: 0.944 | nucleolar normality score (10 µM): inactive: 1.08

O=C(CCCCCCNC(=O)c1cnc(N(c2ccccc2)c2ccccc2)nc1)NO [Ricolinostat (ACY-1215)]
nucleolar normality score (1 µM): inactive: 1.01 | nucleolar normality score (10 µM): inactive: 1.01

CC(C)CC(=O)Nc1n[nH]c2c1CN(C(=O)C1CCN(C)CC1)C2(C)C
nucleolar normality score (1 µM): inactive: 1.02 | nucleolar normality score (10 µM): inactive: 0.986

O=C(NCCS(=O)(=O)c1ccc(C(F)(F)F)cn1)c1ccc(Cl)cc1
nucleolar normality score (1 µM): inactive: 1.05 | nucleolar normality score (10 µM): inactive: 1.07

CC(=O)N1c2ccc(-c3ccc(C(=O)O)cc3)cc2[C@H](Nc2ccc(Cl)cc2)C[C@@H]1C
nucleolar normality score (1 µM): inactive: 1.07 | nucleolar normality score (10 µM): inactive: 1.1

O=C1CN2Cc3c(ccc(Cl)c3Cl)N=C2N1 [Anagrelide HCl]
nucleolar normality score (1 µM): inactive: 0.996 | nucleolar normality score (10 µM): inactive: 1.07

Nc1nc(Cl)nc2c1ncn2[C@@H]1O[C@H](CO)[C@@H](O)[C@@H]1F [Clofarabine]
nucleolar normality score (1 µM): inactive: 0.985 | nucleolar normality score (10 µM): inactive: 0.902

CN1CC[C@H](c2c(O)cc(O)c3c(=O)cc(-c4ccccc4Cl)oc23)[C@H](O)C1 [Flavopiridol HCl]
nucleolar normality score (1 µM): active: 0.175 | nucleolar normality score (10 µM): active: 0.133

Cc1ccc(C(=O)Nc2ccc(CN3CCN(C)CC3)c(C(F)(F)F)c2)cc1C#Cc1cnc2cccnn12
nucleolar normality score (1 µM): inactive: 0.915 | nucleolar normality score (10 µM): active: 0.779

O=C1Nc2ccc(CN3C(=O)CSC3=O)cc2/C1=C/c1cc(CN2CCOCC2)c[nH]1
nucleolar normality score (1 µM): inactive: 1.01 | nucleolar normality score (10 µM): inactive: 0.983

CC(C)[C@H]1C(=O)N[C@@H](CCCNC(=N)N)C(=O)NCC(=O)N[C@@H](CC(=O)O)C(=O)N[C@H](Cc2ccccc2)C(=O)N1C [Cilengitide trifluoroacetate]
nucleolar normality score (1 µM): inactive: 1 | nucleolar normality score (10 µM): active: 0.804

O=C1CCc2c(Oc3ccc4c(c3)[C@@H]3[C@H](O4)[C@H]3c3nc4cc(C(F)(F)F)ccc4[nH]3)ccnc2N1 [Lifirafenib (BGB-283)]
nucleolar normality score (1 µM): inactive: 1.04 | nucleolar normality score (10 µM): inactive: 1.12

O=C(c1cccc(Cl)c1F)N1CCN(Cc2cccc(Nc3nccs3)n2)CC1
nucleolar normality score (1 µM): inactive: 1.06 | nucleolar normality score (10 µM): inactive: 0.906

CCN(CC)c1ccc(C=NNC(=O)c2ccc(O)cc2)cc1
nucleolar normality score (1 µM): inactive: 0.977 | nucleolar normality score (10 µM): inactive: 1

NCCOc1cc(C(=O)Nc2cc(OCCN)c3ccccc3n2)nc(C(=O)Nc2cc(OCCN)c3ccccc3n2)c1 [Pyridostatin Trifluoroacetate Salt]
nucleolar normality score (1 µM): inactive: 0.927 | nucleolar normality score (10 µM): inactive: 1.02

CO/N=C(\C(=O)N[C@@H]1C(=O)N2C(C(=O)O)=C(CSc3nc(=O)c(O)nn3C)CS[C@H]12)c1csc(N)n1 [Ceftriaxone Sodium]
nucleolar normality score (1 µM): inactive: 0.999 | nucleolar normality score (10 µM): inactive: 0.968
